The text below walks through data of the supplement of paper PMC4723716.

The assay concerns Plasmodium falciparum NF54 stage V gametocytes. Nature of the assay: viability index relative to DMSO control (fraction); higher = less gametocyte killing. The conditions noted are these: 2.5 µM, incubation time: 72 h. An outline of the steps:
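Compound at 2.5 µM was incubated for 72 hr at 37°C under low oxygen with P. falciparum NF54 stage V gametocytes (0.75% gametocytemia, 1.25% hematocrit, 10 µl, serum-free screening medium) in 1,536-well plates. Staining used 3 µl of 2.5 µM MitoTracker Red CMXRos plus 0.13% saponin for one to two hours, and red particles of 20–70 µm2 were counted in one imaged field per well. Each viability index is that count relative to the plate mean of solvent-only wells.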

Setting [1] is: library set: Broad Institute DOS.

± gives the uncertainty stated by the source. Over roughly 9,900 compounds, “viability index relative to DMSO control” has its median near 1; the lowest 2% begin near 0.85. This is one part of the list.

For `C[C@@H](O)C#Cc1ccc([C@H]2[C@H]3CN(C(=O)c4ccc5c(c4)OCO5)CCCCN3[C@H]2CO)cc1`, the viability index under setting [1] was determined as 0.983 ± 0.017.
Same read-out and setting: the result for `CN(C)CC(=O)N1CCCCN2[C@H](CO)[C@@H](c3ccc(-c4cncnc4)cc3)[C@H]2C1` reads 1.01 ± 0.063; that for `CO[C@H]1CC[C@@H]2CCOc3c(C#N)cccc3C(=O)N(C)C[C@H](c3ccccc3)CC(=O)N(C)C[C@H]1O2`, 1.14 ± 0.03; that for `C/C=C/c1ccc([C@@H]2[C@H](CO)N(CC3CCCC3)C23CN(S(=O)(=O)CC)C3)cc1`, 0.986 ± 0.045.
Under setting [1], `CCCN1[C@H](C(=O)NCCCN2CCOCC2)[C@@H](CO)[C@@H]2Cn3c(ccc(-c4ccncc4)c3=O)[C@@H]21` yielded a viability index of 1.08 ± 0.065.
Still for that read-out and setting: for `COc1ccc2c3c([nH]c2c1)[C@@H](CO)N(C)C[C@]31CN(C1)S(C)(=O)=O` the value was 1 ± 0.12.
As to `C[C@H]1CN([C@@H](C)CO)C(=O)c2cc(N(C)C)ccc2O[C@@H]1CN(C)CC1CCCCC1`, the viability index under setting [1] was found to be 1.01 ± 0.12.
Take `CN1C(=O)c2cc(NS(=O)(=O)c3ccc(Cl)cc3)ccc2OC[C@H]2O[C@@H](CC(=O)Nc3ccc4c(c3)COC4)CC[C@@H]21`: under setting [1], the viability index worked out at 1.026 ± 0.0093.
On to `NCC[C@H]1CC[C@H](NC(=O)NC2CCCCC2)[C@H](CO)O1`, for which, under setting [1], the viability index was 1.05 ± 0.023.
Same read-out and setting: the result for `CN(C)C(=O)c1ccc(-c2ccc([C@@H]3[C@@H](C#N)N(C(=O)C4CC4)[C@H]3CO)cc2)cc1` reads 1.06 ± 0.068; that for `Cc1ccccc1-c1ccc([C@@H]2[C@@H](CO)N3C(=O)CN(C(=O)c4ccncc4)C[C@@H]23)cc1`, 1.05 ± 0.076.
Compound `CNC[C@@H]1OCCCC[C@H](C)Oc2ccc(NS(=O)(=O)c3ccc(F)cc3)cc2C(=O)N([C@@H](C)CO)C[C@H]1C` gave a viability index under setting [1] of 1.07 ± 0.018.
Compound `CO[C@@H]1CN(C)C(=O)c2cc(NS(=O)(=O)c3ccc(Cl)cc3)ccc2OC[C@H](C)N(C(=O)NC(C)C)C[C@@H]1C` registered a viability index under setting [1] of 1.06 ± 0.06.
Still for that read-out and setting: the result for `O=C1N[C@H](Cc2ccccc2)COCc2cnnn2CC[C@H]1Cc1ccc(-c2ccccc2)cc1` reads 1.07 ± 0.028; that for `Cc1ccc(S(=O)(=O)N(C)C[C@H]2OCCCC[C@H](C)Oc3ccc(NC(=O)c4ccncc4)cc3C(=O)N([C@H](C)CO)C[C@@H]2C)cc1`, 1.08 ± 0.039; that for `Cc1noc(C)c1NC(=O)Nc1ccc2c(c1)CC(=O)N([C@@H](C)CO)C[C@H](C)[C@H](CN(C)Cc1ccc(C(F)(F)F)cc1)O2`, 1.02 ± 0.13.
Turning to `C/C=C/c1ccc([C@H]2[C@@H](CNC(=O)CC3CC3)N(C(=O)CC)[C@H]2CO)cc1`, under setting [1], the viability index was found to be 1.05 ± 0.054.
On the same count and under the same terms, the result for `O=C(CN1CCOCC1)N1CC[C@@H]2[C@@H](CO)Nc3ccc(Br)cc3[C@@H]21` reads 1.12 ± 0.063.
On the same count and under the same terms, the result for `C/C=C/c1ccc([C@H]2[C@@H](CO)N(C(=O)NC3CCCCC3)[C@H]2C#N)cc1` reads 1.11 ± 0.16; that for `Cc1noc(C)c1S(=O)(=O)N(C)C[C@@H]1OCCCC[C@@H](C)Oc2ccc(NS(=O)(=O)c3cn(C)cn3)cc2C(=O)N([C@@H](C)CO)C[C@H]1C`, 1.11 ± 0.094; that for `COc1ccc(C[C@H]2CCn3cc(nn3)COCCCNC2=O)cc1`, 1.01 ± 0.14.
With `Cc1ccc(S(=O)(=O)Nc2ccc3c(c2)C(=O)N([C@@H](C)CO)C[C@@H](C)[C@@H](CN(C)Cc2ccc(C(F)(F)F)cc2)O3)cc1`, the viability index under setting [1] was 1.04 ± 0.07.
`CCCNC(=O)N1C[C@]2(CN(Cc3cccnc3)C2)c2c([C@@H]1CO)n(C)c1cc(OC)ccc21` yielded a viability index under setting [1] of 1.02 ± 0.09.
In turn, `Cc1noc(C)c1NC(=O)N(C)C[C@H]1Oc2ccc(NC(=O)CCCN(C)C)cc2C(=O)N([C@@H](C)CO)C[C@@H]1C` showed a viability index under setting [1] of 1 ± 0.035.
Same read-out and setting: for `COc1cccc(-c2ccc([C@@H]3[C@H]4CNC[C@@H]3N4C(=O)Nc3ccc4c(c3)OCO4)cc2)c1` the value was 1.08 ± 0.064; for `O=C(NCC[C@@H]1CC[C@H](NS(=O)(=O)c2ccc(F)cc2)[C@@H](CO)O1)c1ccc2c(c1)OCO2`, 1.005 ± 0.01; for `N#Cc1ccc(-c2ccc([C@@H]3[C@H](CO)N4C(=O)CNC[C@@H]34)cc2)cc1`, 1.05 ± 0.028.
Same read-out and setting: the result for `COc1cccc(C#Cc2ccc([C@@H]3[C@@H](CO)N4C(=O)CN(C(=O)Cc5cccnc5)C[C@@H]34)cc2)c1` reads 0.969 ± 0.015; that for `COCC(=O)N1C[C@]2(CN(Cc3ccccc3)C2)c2c([C@H]1CO)n(C)c1cc(OC)ccc21`, 0.972 ± 0.1.
For the compound `O=C(Nc1cccc(Cl)c1)N1C[C@@H]2[C@H](c3ccccc31)[C@@H](CO)N2Cc1cccnc1`, the viability index under setting [1] came out at 0.992 ± 0.035.
Compound `CCN(C[C@H]1[C@@H](c2ccccc2)[C@H](CO)N1CC1CC1)C(=O)c1ccccn1` showed a viability index under setting [1] of 1.079 ± 0.0086.
As to `Cc1ccc(S(=O)(=O)Nc2ccc3c(c2)CC(=O)N([C@H](C)CO)C[C@H](C)[C@H](CN(C)S(=O)(=O)c2ccccc2)O3)cc1`, the viability index under setting [1] amounted to 0.99 ± 0.045.
On the same count and under the same terms, for `COC(=O)C[C@@H]1C[C@@H]2c3cc(N)ccc3O[C@@H]2[C@@H](CO)O1` the value was 1.04 ± 0.064.
Compound `CCC(=O)NC[C@@H]1[C@@H](c2ccc(-c3ccc(F)cc3)cc2)[C@@H](CO)N1C(=O)CC` yielded a viability index under setting [1] of 1.0914 ± 0.00018.
Regarding `CCS(=O)(=O)N1CC2(C1)[C@@H](c1ccccc1)[C@H](CO)N2Cc1ccccn1`, the viability index under setting [1] amounted to 1.021 ± 0.0087.
`O=C(C[C@H]1CC[C@H]2[C@@H](COC[C@@H](O)CN2S(=O)(=O)c2ccc(F)cc2)O1)NCCN1CCCCC1`: the viability index under setting [1] came out at 1.01 ± 0.12.
`COc1ccccc1C#Cc1ccc([C@@H]2[C@@H](C#N)N(C(=O)C3CCC3)[C@H]2CO)cc1` registered a viability index under setting [1] of 1.03 ± 0.022.
In turn, `O=C(Cc1ccncc1)N1CC[C@@H]2[C@H](CO)Nc3ccc(-c4ccccc4F)cc3[C@@H]21` showed a viability index under setting [1] of 1.05 ± 0.044.
On to `C[C@H](CO)N1C[C@H](C)[C@H](CN(C)C(=O)c2ccncc2)OCCCC[C@H](C)Oc2ccc(NC(=O)CCC(F)(F)F)cc2C1=O`, for which the viability index under setting [1] was 1.09 ± 0.12.
For `C[C@@H]1CCn2nncc2COC[C@H]2CCCN2C1=O`, under setting [1], the viability index is 1.04 ± 0.058.
Same read-out and setting: the result for `COc1ccccc1NC(=O)N1[C@H](C#N)[C@H](c2ccccc2)[C@H]1CO` reads 1.101 ± 0.0032.
Same read-out and setting: for `C/C=C/c1ccccc1[C@H]1[C@@H](C#N)N(C(=O)Cc2ccccn2)[C@@H]1CO` the value was 0.949 ± 0.23; for `COCC(=O)N1C[C@@H](C)[C@@H](OC)CN(C)C(=O)c2ccc(NC(=O)Nc3cccc(F)c3)cc2OC[C@@H]1C`, 0.989 ± 0.026; for `CCCC(=O)Nc1ccc2c(c1)OC[C@H](C)N(C(=O)c1cccnc1)C[C@H](C)[C@@H](OC)CN(C)C2=O`, 1.0936 ± 0.00045.
Under setting [1], `O=C(Nc1ccc(C(F)(F)F)cc1)Nc1ccc2c(c1)[C@@H]1C[C@@H](CC(=O)N3CCc4ccccc4C3)O[C@@H](CO)[C@@H]1O2` returned a viability index of 1.01 ± 0.022.
In the case of `COc1cccc(C#Cc2ccc([C@@H]3[C@H](CO)N4C(=O)CN(C(=O)Cc5cccnc5)C[C@@H]34)cc2)c1`, the viability index under setting [1] came out at 0.904 ± 0.094.
In turn, `O=C(c1ccccc1)N1CC(=O)N2[C@H](CO)[C@@H](c3ccc(-c4ccccc4)cc3)[C@H]2C1` registered a viability index under setting [1] of 1.018 ± 0.0095.
The same measure, in the same setting: the result for `CCS(=O)(=O)Nc1ccc2c(c1)C(=O)N(C)[C@@H]1CC[C@@H](CC(=O)N[C@@H]3CCN(Cc4ccccc4)C3)O[C@@H]1CO2` reads 1.11 ± 0.14; that for `O=C(C[C@H]1C[C@H]2c3cc(NC(=O)C4CCC4)ccc3O[C@H]2[C@H](CO)O1)NC1CCCC1`, 1.07 ± 0.043.
Under setting [1], `COc1cccc(-c2ccc([C@@H]3[C@@H]4CN(C(=O)Nc5ccccc5F)C[C@H]3N4)cc2)c1` came in with a viability index of 1.05 ± 0.11.
The same measure, in the same setting: the result for `C[C@H]1CN([C@@H](C)CO)C(=O)Cc2cc(NC(=O)C3CC3)ccc2O[C@H]1CN(C)S(=O)(=O)c1cn(C)cn1` reads 0.971 ± 0.036; that for `COc1ccccc1CNC(=O)C[C@H]1C[C@H]2c3cc(NC(=O)C4CCC4)ccc3O[C@H]2[C@H](CO)O1`, 1.08 ± 0.043; that for `COc1cccc(NC(=O)N2CC(=O)N3[C@H](CO)[C@H](c4ccc(C#CCC5CCCC5)cc4)[C@@H]3C2)c1`, 1.1 ± 0.045.
The same measure, in the same setting: the result for `CN(C[C@@H]1[C@@H](c2ccccc2)[C@H](CO)N1Cc1ccccn1)S(C)(=O)=O` reads 1.057 ± 0.0077; that for `O=C(C[C@H]1C[C@@H]2c3cc(NC(=O)C4CCOCC4)ccc3O[C@@H]2[C@@H](CO)O1)NCCN1CCCCC1`, 1.1 ± 0.039; that for `COc1cccc(NC(=O)Nc2ccc3c(c2)C(=O)N(C)C[C@H](OC)[C@H](C)CN(CC2CC2)[C@@H](C)CO3)c1`, 0.9936 ± 0.008.
`C[C@@H]1CN([C@H](C)CO)C(=O)c2cccc(NC(=O)c3nc4ccccc4s3)c2O[C@H]1CN(C)C(=O)NC1CCCCC1`: under “library set: Broad Institute Blood Stage”, the viability index is 0.867 ± 0.054.
`CC(C)C#Cc1ccc([C@@H]2[C@H](CO)N3C(=O)CN(S(=O)(=O)c4ccccc4)C[C@@H]23)cc1` showed a viability index under setting [1] of 1.08 ± 0.016.
Same read-out and setting: for `CCS(=O)(=O)N1CC2(C1)[C@@H](c1ccccc1)[C@@H](CO)N2Cc1ccc(F)cc1` the value was 1.07 ± 0.015.
Still for that read-out and setting: for `C[C@H]1CN([C@@H](C)CO)C(=O)c2cccc(NS(C)(=O)=O)c2O[C@@H]1CN(C)Cc1ccc(-c2ccccc2)cc1` the value was 1 ± 0.078; for `C/C=C/c1ccc([C@H]2[C@H](CO)N(S(C)(=O)=O)[C@H]2CNCC2CCC2)cc1`, 0.688 ± 0.08.
On to `C[C@H](CO)N1C[C@H](C)[C@H](CN(C)S(=O)(=O)c2ccc(Cl)cc2)OCCCC[C@H](C)Oc2ccc(NC(=O)Nc3ccc(C(F)(F)F)cc3)cc2C1=O`, for which the viability index under setting [1] was found to be 1.04 ± 0.065.
On the same count and under the same terms, for `C[C@H]1CN([C@@H](C)CO)C(=O)c2cccc(NC(=O)c3cnccn3)c2O[C@H]1CN(C)C(=O)NC1CCCCC1` the value was 1.01 ± 0.033; for `COc1ccccc1NC(=O)N1CCCCN2[C@H](C1)[C@@H](c1ccc(-c3cccc(C#N)c3)cc1)[C@@H]2CO`, 0.961 ± 0.14.
Still for that read-out and setting: for `C[C@@H]1CCCCO[C@@H](CN(C)Cc2ccc(C(F)(F)F)cc2)[C@H](C)CN([C@H](C)CO)C(=O)c2cc(NC(=O)Nc3cccc4ccccc34)ccc2O1` the value was 1.07 ± 0.18; for `CO[C@@H]1CN(C)C(=O)c2cc(NC(=O)Nc3cccc(Cl)c3)ccc2OC[C@@H](C)N(C(=O)Nc2c(C)noc2C)C[C@H]1C`, 1.052 ± 0.0092; for `COCC(=O)N1CC[C@@]2(CC1)CN[C@H](CO)c1c2c2ccc(OC)cc2n1C`, 1.03 ± 0.052.
On the same count and under the same terms, the result for `CCCNC(=O)N1[C@@H]2CNC[C@H]1[C@@H]2c1ccc(-c2ccccc2)cc1` reads 0.926 ± 0.042; that for `CCS(=O)(=O)Nc1ccc2c(c1)C(=O)N(C)[C@H]1CC[C@@H](CC(=O)NC3CCCCC3)O[C@H]1CO2`, 0.985 ± 0.018.
As for `N#C[C@@H]1[C@H](c2ccccc2-c2cccc(F)c2)[C@@H](CO)N1C(=O)C1CC1`, the viability index under setting [1] came out at 1.1 ± 0.022.
On the same count and under the same terms, the result for `CCCNC(=O)N(C)C[C@H]1Oc2ncc(C#CC3CCCCC3)cc2C(=O)N([C@H](C)CO)C[C@H]1C` reads 0.975 ± 0.057.
